Several values for one entry are separate records, joined by “and”; a condition that tells them apart may be missing. Equal values may be shown once.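 The compound was tested at five concentrations on cells cultured in 96-well plates, with a 48-hour exposure period. Abbreviation: GI50, concentration required for 50% inhibition of growth. TGI is the concentration that stops growth completely.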
Tested on: NCI-H322M lung
Assay: DTP human tumour cell line panel, 48 h

Row | Structure (SMILES) | TGI | GI50
1 | COc1c(OC(C)=O)ccc(/C=C2\N=C(C)OC2=O)c1[N+](=O)[O-] | > 100 µM | 
2 | S=C(NNC1=NCCCN1)Nc1ccccc1 | > 100 µM | 
3 | CC12OC(C(=O)C13CC3)C1C(=O)c3ccccc3C(=O)C12 (stereo unspecified) | > 100 µM | 34.1 µM
4 | Cc1ccc(/C=C2\CN(C)CC3C(c4ccc(C)cc4)=C(C#N)C(=O)NC23)cc1 (stereo unspecified) | > 50 µM | 
5 | O=S(=O)(O)CS(=O)(=O)OCCCl | > 100 µM | 
6 | Cc1ccc(/C=C2\N=C(N3CCCCC3)NC2=O)cc1 | > 100 µM | 
7 | Cc1nc2c(o1)C(=O)c1ccccc1C2=NC1CCCCC1N (stereo unspecified) | 3.16 µM | 
8 | CCOC(=O)/N=c1\ss/c(=N\C(=S)N(C)C)n1-c1ccccc1 | > 100 µM | > 100 µM
9 | C[C@H](CCC1=NCCN1)[C@H]1CC[C@H]2[C@@H]3[C@H](O)C[C@@H]4C[C@H](O)CC[C@]4(C)[C@H]3CC[C@]12C | 27.6 µM | 
10 | N#C/C(=C\c1c(-c2ccccc2)[nH]c2ccccc12)C(=O)c1ccc(Cl)cc1 | > 100 µM | 9.11 µM
11 | C[C@H]1[C@H](OC(=O)CCC(=O)O)O[C@@H]2O[C@]3(C)CC[C@H]4[C@H](C)CC[C@@H]1[C@@]24OO3 | > 100 µM | 15 µM
12 | CCOC(=O)C1C=C2O[C@@H]3OC4(CCCCC4)O[C@@H]3C2[C@H]2C(=O)C=CC(=O)[C@@]12C(=O)OC (stereo partly specified) | 31.2 µM | 
13 | Cn1c(=O)n2n(c1=O)Cc1cccc3cccc(c13)C2 | > 100 µM | 
14 | CC[C@@H](CCCC[C@@H]1CC[C@H]2CC(=O)C[C@@H]12)OC | > 100 µM | 
15 | Cc1ccc(S(=O)(=O)N2CCCSCCSCCCSCC2)cc1 | > 100 µM | 
16 | COCCOCN(C(=O)C1=CCC2(CC1)OCCO2)c1ccccc1I | > 50 µM | 
17 | N[C@H]1C2C3CC4C5CC(C42)C1(c1ccccc1)C53 (stereo partly specified) | > 100 µM | 
18 | S=c1[nH]nc(COc2ccc(Cl)cc2)o1 | > 100 µM | 
19 | COC(=O)[C@]12CC[C@@H](C)[C@H](C)[C@@H]1C1=CC[C@@H]3[C@@]4(C)CC(=O)[C@H](O)[C@@]5(C)COC(=C45)C[C@@]3(C)[C@]1(C)CC2 | 33.2 µM | 17.2 µM
20 | COc1cc(C2CC(c3cccc(Nc4ccncc4)c3)=NN2c2cc(Cl)cc(Cl)c2)cc(OC)c1OC (stereo unspecified) | 3.03 µM | 1.6 µM
21 | Cc1ccc(-c2sc(-c3ccc(C)cc3)c3c2C2CCC3C2)cc1 | > 50 µM | 
22 | C=CC1C2=C(C(=O)NCC2)C2OC(O)C3=C(CCNC3=O)C2C1C (stereo unspecified) | > 100 µM | 
23 | N#Cc1ncn(-c2ccccc2)c1N | > 100 µM | 
24 | COc1cc(C2C(Cl)C(=O)N2n2cnc3ccccc3c2=O)cc(OC)c1OC (stereo unspecified) | > 100 µM | 

Row | Structure (SMILES) | TGI | GI50
25 | CCOC(=O)c1cnc(SCc2ccc(Cl)c(Cl)c2)nc1N1CC1 | 16.9 µM | 4.86 µM
26 | CC(C)(C)c1cc(C(=O)/C=C/c2ccc(O)c(O)c2O)cc(C(C)(C)C)c1O | > 65.7 µM | 
27 | FC(F)(F)P1C2C=CC(CC2)C1(F)F (stereo unspecified) | > 100 µM | 
28 | C/C(=N\NC(=S)Nc1ccc(C(=O)O)cc1)c1ccccn1 | 51.2 µM | 
29 | Cc1c(C(=O)CSc2nc3ccc([N+](=O)[O-])cc3[nH]2)c(=O)n(-c2ccccc2)n1C | > 100 µM | 
30 | CCOC(=O)C1(Cc2ccccc2)Cc2cc3c(cc2C1)CCC3 | > 100 µM | 
31 | OB([O][Hg][c]1ccccc1)[O][Hg][c]1ccccc1 | 2.96 µM | 1.52 µM
32 | Cc1cc(Br)cc(C)c1NC(=O)C(=O)CC(=O)c1sc(-n2nc(-c3ccccc3)cc2-c2ccccc2)nc1C | > 100 µM | 
33 | Cc1cc2c(C)c3cc(C)c(N)cc3nc2cc1N | 4.04 µM | 0.543 µM
34 | CCCCCCC(=O)C/C(CCC(=O)N(Cc1ccccc1)Cc1ccccc1)=N\Nc1ccc([N+](=O)[O-])cc1[N+](=O)[O-] | > 100 µM | 
35 | O=[N+]([O-])c1ccc(Cl)cc1-n1nc(-c2ccccc2)cc1-c1ccccc1 | > 100 µM | 
36 | Cn1cc(-c2ccc(=O)n(Cc3cccc(-c4ncc(OCCN5CCOCC5)cn4)c3)n2)cn1 | > 100 µM | > 100 µM
37 | COc1ccc(NC(=O)CC(=O)n2nc(C)c(N=Nc3ccc(C)c(C)c3)c2C)cc1 | > 100 µM | 
38 | Cc1cc2nc(N3C(=O)/C(=C/c4cccc([N+](=O)[O-])c4)N=C3c3ccccc3)sc2cc1C | > 100 µM | 
39 | CCOC(=O)CCC(NC(=O)c1ccc(N=Cc2nc3cc(C(F)(F)F)ccc3nc2-c2ccccc2)cc1)C(=O)OCC (stereo unspecified) | > 100 µM | > 100 µM
40 | CSCCC(NCc1c(O)ccc2ccc(=O)oc12)C(=O)O (stereo unspecified) | > 100 µM | 
41 | NNC(=O)/C(=C/c1cccc([N+](=O)[O-])c1)NC(=O)c1ccccc1 | > 100 µM | 
42 | Cc1ccc(S(=O)(=O)N/N=C/C(Br)=C(/Br)C(=O)O)cc1 | 37.7 µM | 
43 | C1=CN2C[n+]3cccc(OCc4ccccc4)c3N=C2C(OCc2ccccc2)=C1 | > 100 µM | 
44 | COc1cc(CCc2cc(NC(=O)c3ccc(N4C[C@@H](C)N[C@@H](C)C4)cc3)n[nH]2)cc(OC)c1 | > 10 µM and 17.8 µM | 7.6 µM and 5.15 µM
45 | O=c1c(Cl)nnc2sc3ccccc3n12 | 42.5 µM | 13.4 µM
46 | OC1c2ccccc2[C@@H]2[C@H]1[C@@H](c1ccccc1)C1(Cc3ccccc3C1O)[C@H]2c1ccccc1 (stereo partly specified) | 22.5 µM | 
47 | O=C1Nc2cccc3ncn(c23)C2=C1CCCC2 | > 100 µM | 
48 | O=C1c2ccccc2-c2c1c1ccccc1c(=O)n2CCO | > 100 µM | 

Row | Structure (SMILES) | TGI | GI50
49 | COc1ccc(/C(=C/c2cc(OC)c(OC)c(OC)c2)[N+](=O)[O-])cc1 | 3.66 µM | 1.78 µM
50 | Cc1nc(-c2ccccc2)c(C)n2c1nc1ccccc12 | > 100 µM | 
51 | COc1ccccc1/C=C1\Sc2scc(-c3cccc([N+](=O)[O-])c3)[n+]2C1=O | 39.1 µM | 
52 | O=[N+]([O-])c1ccc(N/N=C\c2cc(Cl)ccc2O)nc1 | 4.39 µM | 0.63 µM
53 | Clc1ccccc1/C=C/c1nsc(/C=C/c2ccccc2Cl)n1 | > 100 µM | 
54 | Nc1cccc2c1C(=O)N(C1CCC(=O)NC1=O)C2=O (stereo unspecified) | > 100 µM | > 100 µM
55 | COc1cc2cc(Oc3ccc(NC(=O)Nc4ccc(F)c(C(F)(F)F)c4)cc3)c(C)nc2cc1OCCN1CCCCC1 | 3.05 µM | 1.67 µM
56 | COC(=O)Nc1nc2ccc(C(=O)c3ccc[nH]3)cc2[nH]1 | > 100 µM | 
57 | CCOP(=O)(OCC)C1C(=O)O[C@H]2CCCC[C@@H]12 (stereo partly specified) | > 100 µM | 
58 | ClC(=Nc1cccc2ccccc12)N(c1ccccc1)c1ccccc1 | > 100 µM | 
59 | CCOc1ccc(N2C(=O)C3c4[nH]c5ccccc5c4C4CCC(C(C)(C)C)CC4C3C2=O)cc1 (stereo unspecified) | > 100 µM | 
60 | CC(=O)Oc1cc(OC(C)=O)c2c(=O)c3ccccc3n(C)c2c1 | > 100 µM | 
61 | O=C(c1ccccc1)c1nn(-c2ccc(Cl)cc2)c2nc3nc(-c4ccccc4)cc(=O)n3nc12 | 67.4 µM | 22.7 µM
62 | O/N=c1/ccn(O)c2ccccc12 | 4.13 µM | 
63 | CC(=O)Nc1ccc(Nc2cc(=O)n(C)c(=O)[nH]2)cc1 | > 100 µM | 
64 | COc1c(Cl)ccc(Cl)c1C(=O)NNC(=O)c1c(Cl)c(Cl)c(Cl)c(Cl)c1-c1nc2ccc(C(=O)c3ccccc3)cc2[nH]1 | > 100 µM | 
65 | CC1=COC(=O)c2ccccc2N1 | > 100 µM | 
66 | Nc1ccn(C=C=CCO)c(=O)n1 | > 1000 µM | > 1000 µM
67 | CCOc1cc(/C=N\N(C)C)cc(/C=N\N(C)C)c1O | > 100 µM | 
68 | O/N=C1/C(=C/c2ccc(F)cc2)CCCC1C(NO)c1ccc(F)cc1 (stereo unspecified) | 36.9 µM | 
69 | Cc1ccc(S(=O)(=O)NC(CCC(=O)Nc2ccc(Cl)cc2)C(=O)Nc2ccc(Cl)cc2)cc1 (stereo unspecified) | 9.24 µM | 1.28 µM
70 | CN(C)CCOc1ccc(I)cc1Cc1ccccc1 | 27 µM | 
71 | CCCCCCCCCCCCCCCCCCNC(=O)[C@H]1CSC(c2ccc(OC)c(F)c2)N1 (stereo partly specified) | > 47.1 µM | > 31.6 µM
72 | O=[N+]([O-])c1ccc(-c2ccc(/C=N/n3c(-c4ccc(Cl)cc4)n[nH]c3=S)o2)cc1 | > 100 µM | 

Row | Structure (SMILES) | TGI | GI50
73 | CCOC(=O)/C(C1=N[C@H](C(=O)OCC)CS1)=C(\C)O | > 100 µM | 
74 | CC1(C)CC(=O)C2=C(C1)NC(SSC1=C(C#N)C(c3ccccc3)C3=C(CC(C)(C)CC3=O)N1)=C(C#N)C2c1ccccc1 (stereo unspecified) | > 150 µg/mL | 150 µg/mL
75 | CC(CC(=O)CO[C@H]1[C@H](O)[C@@H](O)[C@@H](O)[C@@H]2NC(=O)c3c(cc4c(c3O)OCO4)[C@H]21)OC1OC(CO)C(O)C(O)C1O (stereo partly specified) | 2.12 µM | 
76 | COc1ccc(N(C)c2nc(C)nc3ccccc23)cc1 | > 100 µM | < 0.01 µM
77 | COC(=O)c1cnc(=O)n(C2CC(O)C(CO)O2)c1 (stereo unspecified) | > 100 µM | > 100 µM
78 | CNC(=O)OCc1nc(SC(C)C)n(C)c1COC(=O)NC | > 100 µM | 
79 | Cc1cc(C)c(S(=O)(=O)N[C@@H](/C=C(\Br)CO)C(C)C)c(C)c1 | > 100 µM | 
80 | O=C(c1cccs1)c1c(C(F)(F)F)n([O-])c2ccc(C(F)(F)F)cc2[n+]1=O | 3.18 µM | 1.67 µM
81 | CN(C)CCN1C(=O)CC[C@@]2(C)C1=CC[C@@H]1[C@@H]2CC[C@@]2(C)[C@H]1CC[C@]2(C)O | > 100 µM | 
82 | CN1CCN(c2nc3ccccc3nc2C(=O)c2ccc(Cl)cc2)CC1 | > 100 µM | 
83 | CCCCCCCCCCCCCCCC(=O)ON1C(=S)NC(C)(c2ccccc2)C1=S (stereo unspecified) | > 100 µM | 
84 | COc1cc2c3c(n(C)c(=O)c2cc1OC)-c1cc2c(cc1/C3=C\CCCCN)OCO2 | 9.58 µM | 2.51 µM
85 | O=C1C=C(N2CCCC2)C=C(N2CCCC2)C1 | > 100 µM | 
86 | COC(=O)C1Cc2c([nH]c3ccccc23)C(c2cccc(O)c2)N1 (stereo unspecified) | 84.2 µM | 
87 | COc1cc2cc(Oc3ccc(NC(=O)Nc4cccc(C(F)(F)F)c4)cc3)c(C)nc2cc1OCCN1CCCCC1 | 3.2 µM | 1.81 µM
88 | CC(=O)c1ccc(Nc2cc(-n3ccnc3)nc3ccccc23)cc1 | > 100 µM | 24.7 µM
89 | Cc1ccc(-c2c(C#N)c(N)nc(N3CCOCC3)c2C#N)o1 | > 100 µM | 44.5 µM
90 | COc1cc[nH]c1/C=C1\C(=O)Nc2ccc(F)c(C#C[C@@H](O)[C@@H](N)[C@@H](C)O)c21 | 2.34 µM | 0.502 µM
91 | O=S(=O)(c1ccc(NC(=S)N/N=C/c2ccccc2O)cc1)N1CCCCC1 | 2.98 µM | 
92 | CC(=O)Oc1ccccc1[C@H]1CC(=O)C[C@H](c2ccccc2OC(C)=O)C12C(=O)c1ccccc1C2=O | > 100 µM | 
93 | NS(=O)(=O)c1ccc(NC(=O)c2cc([N+](=O)[O-])cc([N+](=O)[O-])c2)cc1 | > 100 µM | 
94 | Cc1cc(C)nc(NS(=O)(=O)c2ccc(Nc3c4ccccc4nc4c(C(=O)Nc5ccc(S(N)(=O)=O)cc5)cccc34)cc2)n1 | > 100 µM | 
95 | CC(O)c1c2c(cc3c1CC1(C3)Cc3cc4c(c(C(C)O)c3C1)CCC4)CCC2 (stereo unspecified) | 59.1 µM | 
96 | N#Cc1ccccc1NC(=O)C(=O)C(C(=O)c1ccccc1-c1ccccc1)C1OC(=O)c2ccccc21 (stereo unspecified) | 35.2 µM | 

— PubChem BioAssay (NCI)
